Laboratory results reported in publication PMC3419718.
These are yes or no findings as the source states them, for the method shown. Some binding calls cover weakened binding; strength is not graded here.

T1: GLO-2.a (C. elegans) (UniProt O01822)
T1 sequence: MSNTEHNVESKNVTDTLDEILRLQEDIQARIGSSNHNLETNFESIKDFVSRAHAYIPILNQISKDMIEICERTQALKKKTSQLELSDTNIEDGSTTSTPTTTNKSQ

T2: SNPN-1 (C. elegans) (UniProt O44445)
T2 sequence: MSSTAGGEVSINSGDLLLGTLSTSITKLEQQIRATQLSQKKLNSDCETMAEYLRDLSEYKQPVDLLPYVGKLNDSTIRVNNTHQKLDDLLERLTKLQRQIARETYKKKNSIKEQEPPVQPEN

B1: GLO-2.a (protein, UniProt O01822 1-106)
chain: T1 sequence
B2: BLOS-4 (protein, UniProt Q22756 1-106)
chain: MTGVDDISSNVHKLVGVTAGMNTAASTGPMNLVLDKCSVVLEELRTIQILTETHSEGLSEQLKMTEKNILEMENLFDQIDQLCLFVQKAKSDLDKLEKLYNVVDRQ
B3: BLOS-1 (protein, UniProt Q22616 1-129)
chain: MLKEHSKKQHLRREVQEKLKNEAIVAAQTLSTAVVDHLNAKVAQAYGNQKRLDVEAKRFENNSAALAKQTEQWLFITEGLNYALKEIGDVENWSKTIENDMKIITETLRRAYEAKNPPLPPNQANPASH
B4: DSBN-1 (protein, UniProt Q9XWQ1 1-210)
chain: MDMLNTLRDTLSSVQAELSTGVEKLRMNVSANIVAQQKVSTESVNEILNTSAGNELLQNFQNLITEVEENGAEGGRLANLCSTRMGRCQQMCKEKADAVMEIDEFLRNSVEFDKKIREINAQISKLTRFCNQTEQAMTYLEALCEVAHTEGEVDLIRQQAKSAATIVQIECESPSVLTSALRSRPEDAVKAQQEEVMLEEFLSSKNMQLP
B5: SNPN-1 (protein, UniProt O44445 1-122)
chain: T2 sequence

Columns and labels:
GLO-2.a (C. elegans) [1] = molecular target: T1, GLO-2.a (C. elegans); assay: two-hybrid; GAL4-based, S. cerevisiae PJ69-4A; growth assay spotted on SD media lacking tryptophan, leucine and histidine (adenine added back at 0.02 mg/ml), HIS3 reporter, 4 days at 30°C
GLO-2.a (C. elegans) [2] = molecular target: T1, GLO-2.a (C. elegans); assay: two-hybrid; library screen: pGBKT7g-GLO-2.a bait against the Caldwell C. elegans cDNA library in pACT2.2, PJ69-4A; approximately 200,000 clones on adenine dropout media; clones recovered from yeast and retested
SNPN-1 (C. elegans) = molecular target: T2, SNPN-1 (C. elegans); assay: two-hybrid; GAL4-based, S. cerevisiae PJ69-4A; growth assay spotted on SD media lacking tryptophan, leucine and histidine (adenine added back at 0.02 mg/ml), HIS3 reporter, 4 days at 30°C

Binder	binding (GLO-2.a (C. elegans) [1])	binding (GLO-2.a (C. elegans) [2])	binding (SNPN-1 (C. elegans))
B1	binds	–	–
B2	binds	binds	–
B3	binds	–	–
B4	no binding	–	binds
B5	no binding	–	–
